According to article PMC4336329 (PLoS ONE, 2015):
In all, about 310,000 compounds went through this assay and about 14,000 (4.5%) showed an effect of 50% or more. Effects have a minus sign here. This is one part of the list.

What follows are compounds tested against human ether-à-go-go-related gene (hERG) potassium channel (human, UniProt Q12809) (assay: primary screen, population patch clamp on CHO cells stably expressing hERG).
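Further: peak tail current of the secondary pulse compared with the same well before compound.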

Sequence of human ether-à-go-go-related gene (hERG) potassium channel (Q12809 whole entry, looked up): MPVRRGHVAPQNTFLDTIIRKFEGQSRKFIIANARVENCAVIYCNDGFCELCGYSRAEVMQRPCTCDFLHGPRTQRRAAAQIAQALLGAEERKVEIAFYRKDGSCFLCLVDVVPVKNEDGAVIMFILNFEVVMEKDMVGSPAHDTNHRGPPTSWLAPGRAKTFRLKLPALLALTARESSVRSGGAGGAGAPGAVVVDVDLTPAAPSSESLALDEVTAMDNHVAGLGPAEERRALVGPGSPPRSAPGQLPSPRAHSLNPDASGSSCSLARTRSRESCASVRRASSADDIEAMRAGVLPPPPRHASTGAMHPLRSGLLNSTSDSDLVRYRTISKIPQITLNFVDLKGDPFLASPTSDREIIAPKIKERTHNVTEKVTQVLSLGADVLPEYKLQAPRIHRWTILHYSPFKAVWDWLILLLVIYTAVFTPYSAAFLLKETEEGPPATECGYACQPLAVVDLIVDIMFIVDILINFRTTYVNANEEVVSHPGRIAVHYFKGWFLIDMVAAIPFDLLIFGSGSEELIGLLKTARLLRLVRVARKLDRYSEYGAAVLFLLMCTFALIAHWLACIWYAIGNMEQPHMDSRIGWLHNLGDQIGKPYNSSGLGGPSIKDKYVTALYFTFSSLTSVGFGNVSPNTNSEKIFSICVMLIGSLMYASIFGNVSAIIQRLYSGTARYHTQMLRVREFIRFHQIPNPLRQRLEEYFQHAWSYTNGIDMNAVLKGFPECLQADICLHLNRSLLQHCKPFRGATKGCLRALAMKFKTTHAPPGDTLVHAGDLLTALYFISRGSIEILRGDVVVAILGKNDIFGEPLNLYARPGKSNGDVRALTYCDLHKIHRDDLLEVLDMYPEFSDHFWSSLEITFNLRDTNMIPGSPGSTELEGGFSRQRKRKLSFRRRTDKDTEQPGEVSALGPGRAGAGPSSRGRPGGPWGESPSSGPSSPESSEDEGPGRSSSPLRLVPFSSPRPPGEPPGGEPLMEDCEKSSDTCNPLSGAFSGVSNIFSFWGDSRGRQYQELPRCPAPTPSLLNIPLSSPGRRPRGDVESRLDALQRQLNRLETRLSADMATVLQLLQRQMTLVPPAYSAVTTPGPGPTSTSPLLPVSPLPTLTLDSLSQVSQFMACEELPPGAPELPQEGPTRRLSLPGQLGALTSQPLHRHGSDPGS

SMILES | hERG current change (%, negative = inhibition) at 10uM
CN(Cc1nccn1C)C(=O)CCc1nnc(CCC2CCCCC2)o1 | -23.6%
Cn1cnnc1SCCn1c(N2CCCCC2)nc2c1c(=O)[nH]c(=O)n2C | 9.22%
Cc1ccc(-c2nnc(N3CCN(c4ccccn4)CC3)c3ccccc23)cc1 | -46.3%
O=C1CNC(=S)N1Cc1ccccc1 | 33%
Cc1ccc(NC(=O)C2CCN(C(=O)c3cccs3)CC2)c(C)c1 | 2.55%
O=C1N[C@H](Cc2ccccc2)C(=O)N2[C@@H]3[C@H](C[C@@H]12)c1ccccc1N3OOSc1ccccc1 | -38.9%
O=C(c1cc2c(F)cccc2s1)N1CCCC1 | 37.2%
CCCN(CC1CC1)C(=O)CCc1nnc(C(OC)c2ccccc2)o1 (stereo not shown) | -4.58%
Cc1nc2ccc(C(=O)N(C)CC3CCCN(CCc4ccc(Cl)cc4)C3)cc2[nH]1 (stereo not shown) | -61.2%
CC1CCC(NC(=O)C(NC(=O)c2ccccc2)C(C)C)CC1 (stereo not shown) | -4.71%
O=C(N/N=C/c1ccc(N2CCOCC2)s1)c1ccc(NS(=O)(=O)c2cccs2)cc1 | 9.21%
O=C(NCc1ccccc1)c1ccc(CS(=O)(=O)c2ccccc2)o1 | -13.7%
COc1cc(NC(=O)c2cc(-c3ccccc3Cl)on2)cc(OC)c1OC | -35.9%
CCC(CO)Nc1ncc([N+](=O)[O-])cc1C#N (stereo not shown) | -16.3%
Cc1cc(F)c(F)c(C(=O)N2CCOCC2)c1 | 20.2%
Cc1ccc(-n2ncc3c(=O)n(CC(=O)N4CCCCCC4)cnc32)cc1 | -5.37%
CCCc1cc(=O)[nH]c(SCC(=O)Nc2ccc(Cl)c(S(=O)(=O)N3CCOCC3)c2)n1 | -0.519%
Cc1cc(F)ccc1S(=O)(=O)N1CCCOC1CNC(=O)C(=O)NCCC1=CCCCC1 (stereo not shown) | 13.3%
Cc1ccccc1-n1c(O)c(/C=C2/C(c3ccccc3)=Nc3ccccc32)c(=O)[nH]c1=O | -11.4%
COc1ccc(C(=O)Oc2ccc(N(C)S(=O)(=O)c3ccccc3)cc2)cc1[N+](=O)[O-] | -14.6%
O=C(Cn1nnc(-c2ccccc2)n1)N/N=C/c1cc([N+](=O)[O-])ccc1O | -12.1%
ClCC1NCC(c2ccccc2Cl)c2c1[nH]c1ccccc21 (stereo not shown) | 0.482%

SMILES | hERG current change (%, negative = inhibition) at 10uM
COCCN(C(=O)Cc1cccs1)C(C(=O)NCc1ccc(OC)cc1)c1ccc(OC)cc1 (stereo not shown) | -47.6%
Cc1nn(Cc2ccc(C(=O)N/N=C/c3ccncc3)o2)c(C)c1Cl | -49.1%
CCC(=O)N1CCN(c2nc3ccccc3s2)CC1 | -16.8%
CC(=O)NC1C(OCc2ccccc2)OC2COC(C)(C)OC2C1O (stereo not shown) | 18.3%
CCOC(=O)C1(C(=O)O)NC(=O)CC1c1ccccc1 (stereo not shown) | -0.636%
CN1CCN(Cc2ccc(OCc3ccccc3)cc2)CC1 | -20.5%
COc1cc(CCCN2C(N)=NC[C@@H]2Cc2ccc(O)cc2)cc(OC)c1OC | 22.9%
Cc1nn2c(=O)c(NC(=O)c3ccc(F)cc3)cnc2s1 | 16.6%
O=C(NC1=NCCS1)C12CC3CC(C1)CC(C(=O)NC1=NCCS1)(C3)C2 | 21.9%
CC(C)C(=O)NC(c1ccco1)c1ccc2cccnc2c1O (stereo not shown) | -1.83%
CCOC(=O)c1cnc(-n2nc(C)cc2C)nc1NNc1nc(C)cc(C)n1 | 2.99%
COc1ccc(C(C#N)N2CCC(c3ccccc3)=N2)cc1OC (stereo not shown) | 7.77%
Cc1cc(C)c(NC(=O)CNC(=O)c2cc(C3CC3)nn2-c2ccccc2)c(C)c1 | -4.74%
O=C(Nc1ccon1)Nc1cc(Cl)ccc1Cl | 5.01%
Clc1ccc(-c2nnc(-c3ccc(Br)o3)o2)c(Cl)c1 | -0.684%
CC(=O)C(C)Oc1ncn(-c2ccccc2)n1 (stereo not shown) | 8.73%
Cc1cccc(C(=O)Nc2ccc(N3CCN(c4ccc(C(F)(F)F)cn4)CC3)nc2)c1 | 11.7%
COCCN(C(=O)Cc1cccs1)c1nnc(-c2cccnc2)s1 | 0.165%
C/C(=N/NC(=O)CNC(=O)CCc1ccccc1)c1ccc(Cl)cc1 | -12.3%
O=[N+]([O-])c1cc([N+](=O)[O-])c2nonc2c1Nc1ccc(O)cc1 | -56.9%
COc1ccccc1C(=O)COC(=O)c1ccc(-n2cnnn2)cc1 | -2%
COc1ccc(NC(=O)N2CCCC(c3nc(-c4ccc(F)cc4)no3)C2)cc1 (stereo not shown) | -20.3%

SMILES | hERG current change (%, negative = inhibition) at 10uM
Nc1nc(SCC(=O)c2cc3ccccc3o2)n[nH]1 | -7.14%
O=C(CCc1ccccc1)NNC(=O)c1ccc(Br)cc1 | 8.17%
O=C1c2ccccc2C(Nc2ccc(Cl)cn2)N1Cc1ccccc1 (stereo not shown) | -6%
COc1ccc(/C=N\NC(=O)c2ccccc2Br)cc1COc1ccccc1 | -2.22%
CCOC(=O)C1(CCOc2ccccc2)CCN(Cc2cccc3c2OCO3)CC1 | -64.6%
Cc1ccc(CSCCNC(=O)CN(c2cc(C)ccc2C)S(C)(=O)=O)cc1 | -23.5%
CCCOc1ccc(NC(=O)CNC(=O)c2cc(OC)cc(OC)c2)cc1OCCC | 9.75%
COc1ccc(C(=O)NNC(=S)NC(=O)C(C)(C)C)cc1 | 13.3%
Cc1ccc2nc(-c3ccc(NC(=S)NCCC(C)C)cc3)sc2c1 | -11.8%
N#Cc1nc(-c2ccccc2)oc1N1CCC(C(N)=O)CC1 | 9.26%
COc1ccc(Cc2nnc(N/N=C/c3ccccc3O)[nH]c2=O)cc1OC | -26.9%
CCOc1cc(-c2nc(-c3cc(OC)c(OC)c(OC)c3)no2)cc(OCC)c1OCC | 15.5%
c1ccc(-n2ncc3c(N4CCN(CCOc5cccc6ccccc56)CC4)ncnc32)cc1 | 13.3%
O=C(COC(=O)Cc1cccs1)Nc1ccccc1Cl | 20.5%
Cc1ccc(-c2nc(-c3ccccn3)no2)cc1[N+](=O)[O-] | 8.38%
O=C(Nc1ccc(F)cc1F)N1CCCN(c2ccc(C(F)(F)F)cn2)CC1 | -12.4%
O=C(CN1CCC(NC(=O)c2ccccc2F)CC1)Nc1ccc2c(c1)OCO2 | -41.7%
O=C(O)C1CC(=O)N(CCc2ccccc2)C1 (stereo not shown) | 6.79%
COc1ccc(S(=O)(=O)N2CCN(C(=O)NCc3ccc(C)cc3)CC2)cc1 | -8.22%
c1ccc2c(c1)nnn2Cc1nnc2sc(-c3ccc4c(c3)OCCO4)nn12 | 2.29%
COC(=O)c1sccc1NC(=S)N1CCN(c2ccccc2)CC1 | -4.15%
O=c1[nH]c(=O)n(CCC2=CCCCC2)c(O)c1C=Nc1cccc(F)c1 | -7.11%

SMILES | hERG current change (%, negative = inhibition) at 10uM
NC(=O)C1CCN(C(=O)C2CC(=O)N(c3ccc4c(c3)OCCO4)C2)CC1 (stereo not shown) | 6.32%
O=C(c1cc2ccccn2n1)N1CCN(c2cccc(C(F)(F)F)c2)CC1 | -4.52%
COc1cc(NC(=O)C2CCCCN2)ccc1OCC(C)C (stereo not shown) | 9.42%
CSc1cccc(NC(=O)C2CCCN(S(=O)(=O)c3ccc(F)cc3)C2)c1 (stereo not shown) | 1.19%
CCOC(=O)C1CCN(S(=O)(=O)c2ccc(Br)c(OCC)c2)CC1 | -14.8%
CCN1C(=O)c2cccc3c(S(=O)(=O)Nc4ccncc4)ccc1c23 | 13.3%
CCC(=O)Nc1ccc(/C(C)=N/NC(=O)c2c(-c3ccccc3Cl)noc2C)cc1 | -2.91%
Cc1ccc(S(=O)(=O)N(C)CC(=O)N2CCCCCCC2)cc1 | -26%
CCCCOP(=O)(OCCCC)C(Nc1ccc(C(=O)OCC)cc1)c1ccncc1 (stereo not shown) | -40.7%
CCN1CCN(c2nc3c(c(=O)n(C)c(=O)n3C)n2CCSc2ncccn2)CC1 | 3.51%
CC1=NN(S(=O)(=O)c2ccc(C)cc2)C(=O)c2ccccc2O1 | 9.79%
CCOc1ccc(C2CC(c3cccc(OC)c3)Nc3ncnn32)cc1 (stereo not shown) | -35%
S=C(Nc1ccccc1Cl)N1CCCC(c2ccccc2)=N1 | -1.76%
CCN(CC)C1CCN(Cc2cn[nH]c2-c2ccc(OC)c(F)c2)C1 (stereo not shown) | -23.2%
CN(Cc1ccccc1)S(=O)(=O)c1ccc(Cl)c(C(=O)N2CCC2)c1 | -21.7%
I.NC(Cc1ccccc1)C(O)(c1ccccc1)c1ccccc1 (stereo not shown) | -29.8%
CN(C)CC(=O)c1ccc(-c2ccccc2)cc1 | -1.03%
O=C(NC(Cc1c[nH]c2ccccc12)C(=O)O)c1ccc(Br)cc1 (stereo not shown) | 2.04%
CC1CCc2nn(CC(=O)N3CCc4ccccc43)cc2C1 (stereo not shown) | -6.82%
O=C(O)c1ccc(Nc2ncc([N+](=O)[O-])cc2[N+](=O)[O-])cc1 | 18.1%
CCOP(=O)(OCC)c1cccc(O)c1 | 0.784%
CCOC(=O)c1sc(=S)n(-c2ccc(Cl)cc2)c1C | -37.4%
